# Reference: PubChem BioAssay AID588591 (National Center for Advancing Translational Sciences (NCATS), 2011)
# In all, about 390,000 compounds went through this assay and about 4,700 (1.2%) were called active. Inconclusive results, whose numbers are uncertain, are shown with a selection of clear calls. The call rests on the fitted dose curve; in most records, active means well fitted inhibition curve with a large enough effect; inconclusive means small, poorly fitted or top-dose-only effect, or another doubt; inactive means no such curve, though single readings can be large or run the other way. A potency beside an inconclusive call is a rough fit, not a confirmed value.
# Biological target: DNA polymerase eta (Homo sapiens) (UniProt Q9Y253)
# Assay: qHTS for Inhibitors of Polymerase Eta
# Details: recombinant Pol eta, fluorescent DNA replication assay; series mostly up to 114 µM; activity change, negative = inhibition: at the top concentration
# Summary of the method: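 Fluorescent replication assay: 50 nM final substrate added after a 15 min room-temperature compound preincubation with 10 nM enzyme. Signal taken at 0 min and again at 10 min.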
# On the % scale 0 is the no-effect control and ±100 the full control effect; potency means the concentration at half of the fitted maximal effect; tags describe the fitted curve by direction and shape.
# Chain of UniProt Q9Y253 (Q9Y253 whole entry, looked up): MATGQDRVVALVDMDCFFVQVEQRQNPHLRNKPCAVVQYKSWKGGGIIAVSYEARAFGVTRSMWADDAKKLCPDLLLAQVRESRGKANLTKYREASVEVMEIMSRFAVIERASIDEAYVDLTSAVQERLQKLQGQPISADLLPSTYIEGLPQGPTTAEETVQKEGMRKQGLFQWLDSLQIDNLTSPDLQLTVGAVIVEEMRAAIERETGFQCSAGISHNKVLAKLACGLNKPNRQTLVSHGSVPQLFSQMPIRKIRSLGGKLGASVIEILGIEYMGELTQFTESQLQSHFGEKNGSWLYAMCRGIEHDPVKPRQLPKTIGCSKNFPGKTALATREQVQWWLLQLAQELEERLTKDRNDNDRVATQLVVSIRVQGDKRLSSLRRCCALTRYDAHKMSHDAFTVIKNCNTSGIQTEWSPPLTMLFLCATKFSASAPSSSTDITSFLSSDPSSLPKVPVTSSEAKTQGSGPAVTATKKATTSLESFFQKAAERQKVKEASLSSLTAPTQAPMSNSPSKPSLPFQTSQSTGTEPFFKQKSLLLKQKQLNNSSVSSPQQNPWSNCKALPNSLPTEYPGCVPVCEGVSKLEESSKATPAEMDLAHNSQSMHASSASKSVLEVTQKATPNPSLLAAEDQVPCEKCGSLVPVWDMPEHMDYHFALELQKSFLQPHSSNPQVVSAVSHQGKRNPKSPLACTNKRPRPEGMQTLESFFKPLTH
SMILES,Potency,"activity change, negative = inhibition"
CCCCn1nc2cc(C(=O)NCc3cc(C(F)(F)F)cc(C(F)(F)F)c3)ccc2c1OC,"inconclusive: 100 µM [inhibitor, partial curve, poor fit]",
CCCc1nc(SCC(=O)Nc2ccc(N3CCOCC3)cc2)c2ccccc2n1,"inconclusive: 14.1 µM [inhibitor, partial curve, poor fit]",
O=C(Cc1ccc(-c2ccccc2)cc1)NNC(=S)NCc1ccco1,"inconclusive: 79.4 µM [inhibitor, partial curve, poor fit]",
COc1cc(OC)cc(C(=O)Nc2ccc(S(=O)(=O)Nc3onc(C)c3C)cc2)c1,"inconclusive: 89.1 µM [inhibitor, single point]",
O=C(CN1C(=O)NC2(CCCCCC2)C1=O)N1CCN(c2ccccc2)CC1,,inactive: -17.8%
CC(C)Sc1ncc(Cl)c(C(=O)Nc2ccc(S(=O)(=O)N3CCCCC3C)cc2)n1 (stereo not drawn),,inactive: -16.6%
O=C(N/N=C1/C(=O)c2cccc3cccc1c23)c1ccc(Cl)cc1,active: 8.91 µM,
O=C(O)c1ccc(N2C(=O)CC(N3C(=O)/C(=C/c4ccc(Cl)cc4)SC3=S)C2=O)cc1 (stereo not drawn),"inconclusive: 56.2 µM [inhibitor, partial curve, poor fit]",
CC(C)(C)c1ccc2c(c1)OC(C(=O)N/N=C\c1ccccn1)CO2 (stereo not drawn),,inactive: -16.4%
O=C(CCl)N(Cc1cc(=O)[nH]c2ccccc12)c1ccccc1,active: 50.1 µM,
CCC(C)(C)NC(=O)C(c1ccccc1Cl)N(Cc1cccnc1)C(=O)CCC(=O)Nc1cc(C)on1 (stereo not drawn),"inconclusive: 79.4 µM [inhibitor, partial curve, poor fit]",
Cc1c(C(=O)OCC(=O)NCc2ccco2)cccc1[N+](=O)[O-],active: 25.1 µM,
Nc1cc(-c2ccc(Cl)cc2)nn1S(=O)(=O)c1cccc2nsnc12,"inconclusive: 79.4 µM [inhibitor, partial curve, poor fit]",
COc1ccc(C(=O)OCc2cc(=O)n3ccsc3n2)cc1F,"inconclusive: 0.708 µM [inhibitor, full curve, poor fit]",
CCn1nc(C(=O)OC(C(=O)c2c[nH]c3ccccc23)c2ccccc2)c2ccccc2c1=O (stereo not drawn),,inactive: -7.87%
O=C(CCc1nc2ccccc2c(=O)[nH]1)Nc1nnc(SCc2ccc(F)cc2)s1,"inconclusive: 25.1 µM [inhibitor, partial curve, poor fit]",
Oc1ccc(N=Cc2ccc(-c3cccs3)s2)cc1,active: 31.6 µM,
O=Nc1c(O)[nH]c2c(F)cccc12,"inconclusive: 31.6 µM [inhibitor, partial curve, poor fit]",
Cc1ccc2c(c1)C(=O)C(=O)N2CC1COc2ccccc2O1 (stereo not drawn),"inconclusive: 31.6 µM [inhibitor, partial curve, poor fit]",
COc1ccc(C(=O)C[N+]2(C)CCOCC2)cc1,,inactive: -7.19%
CCOC(=O)N1CCC(=NNC(=O)NC2CCCCC2)CC1,,inactive: -9.89%
CC1(c2ccc(Cl)cc2Cl)OCC(Cn2ccnc2)O1 (stereo not drawn),"inconclusive: 79.4 µM [inhibitor, single point]",

SMILES,Potency,"activity change, negative = inhibition"
O=C(CCCCCn1c(=O)c2sccc2n(CC(=O)Nc2cccc(Cl)c2)c1=O)NCc1ccc2c(c1)OCO2,,inactive: -1.59%
COc1ccc(-c2nc3c(c(SCC(=O)Nc4ccc(C(=O)O)cc4)n2)Cc2ccccc2O3)cc1,active: 7.94 µM,
CC(Oc1ccccc1)C(=O)Nc1ccc(S(=O)(=O)N2CCN(C)CC2)cc1 (stereo not drawn),,inactive: -13.7%
O=[N+]([O-])c1cc(S(=O)(=O)N2CCCCCC2)ccc1F,"inconclusive: 35.5 µM [inhibitor, partial curve, poor fit]",
CC1(CCc2ccccc2)NC(=O)N(CC(=O)O)C1=O (stereo not drawn),"inconclusive: 89.1 µM [inhibitor, partial curve, poor fit]",
COC/C=C/C1=CC2=CC(=O)C(C)(OC(=O)c3cnc4ccccc4n3)C(=O)C2=CN1CCOC (stereo not drawn),,inactive: 12.1%
CCOC(=O)C1CCC(CN(Cc2ccccc2)S(=O)(=O)c2ccc(Cl)cc2)CC1 (stereo not drawn),,inactive: -7.9%
Cc1ccccc1-c1n[nH]c(=S)n1/N=C/C=C/c1ccco1,active: 22.4 µM,
O=C(NCc1ccco1)c1cc2ccccc2c(=O)o1,"inconclusive: 14.1 µM [inhibitor, partial curve, poor fit]",
CCn1cc(C(=O)N2CCN(c3cccc(C)c3C)CC2)c(=O)c2ccc(C)nc21,"inconclusive: 100 µM [inhibitor, partial curve, poor fit]",
CCCCOc1ccc(CNC(=O)CN2CCSc3ccccc32)cc1,"inconclusive: 44.7 µM [inhibitor, partial curve, poor fit]",
COC(=O)c1ccc(/C=C/C(=O)OCC(=O)Nc2sccc2C(N)=O)cc1,"inconclusive: 15.8 µM [inhibitor, partial curve, poor fit]",
COc1ccc(NC(=O)c2cc(S(=O)(=O)N3CCCCC3)ccc2C)cc1S(=O)(=O)N1CCOCC1,,inactive: -19.4%
Cc1c(Cl)cccc1NS(=O)(=O)c1ccc2[nH]cc(C(=O)NC3CCCC3)c(=O)c2c1,active: 25.1 µM,
COc1ccc(C(=O)Nc2c(N)nc(SCC(=O)Nc3ccc(NC(C)=O)cc3)[nH]c2=O)cc1OC,"inconclusive: 56.2 µM [inhibitor, partial curve, poor fit]",
CCOc1ccc(OCC)c(Nc2nc3ccccc3c3nnc(C)n23)c1,,inactive: -9.41%
COc1ccc(CN2CCn3ncc(C(=O)Nc4cc(C)cc(C)c4)c3C2=O)cc1,"inconclusive: 20 µM [inhibitor, partial curve]",
O=C(NCCc1cccs1)c1ccc(Cn2c(SCc3ccc(F)cc3)nc3cccnc32)cc1,,inactive: -14.5%
CC(C)(C)n1ncc2c(=O)n(CC(=O)NCc3ccco3)cnc21,"inconclusive: 31.6 µM [inhibitor, partial curve, poor fit]",
O=C(COc1ncnc2sccc12)N1CCN(C(=O)c2ccco2)CC1,"inconclusive: 50.1 µM [inhibitor, partial curve, poor fit]",
CCOC(=O)c1sc(NC(=O)C(CC)Sc2nnc3c4ccccc4n(CC)c3n2)nc1C (stereo not drawn),"inconclusive: 89.1 µM [inhibitor, partial curve, poor fit]",
